From the supplement of paper PMC8047034 come the findings set out here.

The subject of one assay is OVCAR4. In words: log2 surviving fraction (library drug vs vehicle, or drug + carboplatin vs carboplatin alone; relative to plate median); ovarian cancer lines: OVCAR4 is platinum-sensitive and Ov4Carbo platinum-resistant; higher = more cell survival. As to conditions: library drug concentration 10 µM, 7 days.
The subject of a further assay is Ov4Carbo. Described as above. As to conditions: library drug concentration 10 µM, 7 days.

Where a name gives a salt, the structure may show the parent alone. The list shows a part of the results. Single values are uncertain, as repeats are few or missing.

`CCc1cc2c(cc1CC)CC(NC[C@H](O)c1ccc(O)c3[nH]c(=O)ccc13)C2` [Indacaterol Maleate]: the log2 surviving fraction is -0.496 in the assay with OVCAR4 (carboplatin co-treatment 0 µM), -0.712 in the assay on OVCAR4 (carboplatin co-treatment 5 µM), -1.58 in the assay on Ov4Carbo (carboplatin co-treatment 0 µM) and 0.223 with Ov4Carbo (carboplatin co-treatment 5 µM).
In the same order, the values of `Cc1c(NC(=O)c2cccnc2)c(=O)n(-c2ccccc2)n1C` [Nifenazone] are -0.494, 0.924, 0.358 and 0.316.
Regarding `O=C(O)c1ccccc1` [Benzoic acid], the log2 surviving fraction with OVCAR4 (carboplatin co-treatment 0 µM) is -0.926; with OVCAR4 (carboplatin co-treatment 5 µM), 0.629; with Ov4Carbo (carboplatin co-treatment 0 µM), -0.653; in the assay on Ov4Carbo (carboplatin co-treatment 5 µM) it was 0.0274.
For the compound `C[C@]12C=CC(=O)C=C1CC[C@@H]1[C@@H]2C(=O)C[C@@]2(C)[C@H]1CC[C@]2(O)C(=O)CO` [Prednisone (Adasone)], the log2 surviving fraction was 0.557 in the assay on OVCAR4 (carboplatin co-treatment 0 µM), 0.36 in the assay on OVCAR4 (carboplatin co-treatment 5 µM), 0.161 in the assay on Ov4Carbo (carboplatin co-treatment 0 µM) and -0.403 in the assay with Ov4Carbo (carboplatin co-treatment 5 µM).
In the same order, the values of `OCC(O)CN1CCN(c2ccccc2)CC1` (stereo unspecified) [Dropropizine] are 0.97, 1.09, 1.22 and 0.314.
On to `CC(C)=CC1C(C(=O)OCc2cccc(Oc3ccccc3)c2)C1(C)C` (stereo unspecified) [Phenothrin], for which the log2 surviving fraction in the assay on OVCAR4 (carboplatin co-treatment 0 µM) was -0.281; in the assay on OVCAR4 (carboplatin co-treatment 5 µM), 0.111; in the assay with Ov4Carbo (carboplatin co-treatment 0 µM), 0.117; with Ov4Carbo (carboplatin co-treatment 5 µM), 0.00861.
Regarding `CC(=O)O[C@H]1CC[C@@]2(C)C(=CC[C@@H]3[C@@H]2CC[C@]2(C)C(c4cccnc4)=CC[C@@H]32)C1` [Abiraterone Acetate (CB7630)], the log2 surviving fraction is -0.997 in the assay with OVCAR4 (carboplatin co-treatment 0 µM), -0.707 in the assay on OVCAR4 (carboplatin co-treatment 5 µM), -0.122 with Ov4Carbo (carboplatin co-treatment 0 µM) and 0.111 in the assay on Ov4Carbo (carboplatin co-treatment 5 µM).
The like results for `C[C@H](CCC(=O)O)[C@H]1CC[C@H]2[C@@H]3[C@@H](O)C[C@@H]4C[C@H](O)CC[C@]4(C)[C@H]3CC[C@]12C` [Ursodiol (Actigal Urso)] were, in that order, 0.81, 0.673, -0.00732 and 0.00409.
The like results for `C#CCN[C@@H]1CCc2ccccc21` [Rasagiline mesylate] were, in that order, -0.936, -0.479, 0.0252 and -0.189.
